This is an account of results in PubChem BioAssay AID1159614 (National Center for Advancing Translational Sciences (NCATS), 2016).

Screen size: about 45,000 compounds; about 65 (0.1%) were called active. The call rests on the fitted dose curve; in most records, active means well fitted activation curve with a large enough effect; inconclusive means small, poorly fitted or top-dose-only effect; inactive means no such curve, though single readings can be large or run the other way. This is one part of the list.

Sequence of UniProt P54803 (P54803 whole entry, looked up): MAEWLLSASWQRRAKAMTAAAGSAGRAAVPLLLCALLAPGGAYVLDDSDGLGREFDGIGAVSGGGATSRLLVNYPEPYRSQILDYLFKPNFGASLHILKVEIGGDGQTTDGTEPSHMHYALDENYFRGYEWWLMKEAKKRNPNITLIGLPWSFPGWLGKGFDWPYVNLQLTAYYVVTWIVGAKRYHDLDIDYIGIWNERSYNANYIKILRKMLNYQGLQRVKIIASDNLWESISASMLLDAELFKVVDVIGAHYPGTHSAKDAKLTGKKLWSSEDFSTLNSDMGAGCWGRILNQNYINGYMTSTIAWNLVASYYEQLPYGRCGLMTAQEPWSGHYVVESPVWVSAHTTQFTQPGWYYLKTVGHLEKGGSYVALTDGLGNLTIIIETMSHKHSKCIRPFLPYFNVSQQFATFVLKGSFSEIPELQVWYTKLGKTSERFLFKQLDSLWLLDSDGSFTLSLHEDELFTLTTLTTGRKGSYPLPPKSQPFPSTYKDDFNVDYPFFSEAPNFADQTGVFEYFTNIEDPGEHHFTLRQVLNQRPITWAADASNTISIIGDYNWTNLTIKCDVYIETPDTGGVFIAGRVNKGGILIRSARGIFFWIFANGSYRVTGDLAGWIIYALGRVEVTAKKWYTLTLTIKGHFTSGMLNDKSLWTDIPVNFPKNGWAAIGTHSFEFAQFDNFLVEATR

In this assay the target is Galactocerebrosidase (Homo sapiens) (UniProt P54803). Put plainly: A Novel Cell-Based Assay to Identify Small Molecules for B -Galactocerebrosidase. Further: 0% is about no effect; nearly all actives have a fitted effect of over 65% in size. As to conditions: 145M-Twi-hGALC-G270D cells (Twitcher mouse brain line with human GALC G270D), HMU-beta-Gal fluorescence, 48 h; series mostly up to 57.5 µM; activation: at the top concentration. The method, boiled down:
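Live 145M-Twi cells (Twitcher mouse brain-derived, GALC-null) stably expressing human GALC-G270D, with a wild-type GALC line, were compound-treated. Residual GALC activity was then read as fluorescence from 0.1 mM final HMU-β-gal at pH 5.2; higher signal means activation.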
Take `Cc1ccc(-n2nc(C)c3c(C(=O)O)cc(C)nc32)cc1`: the “activation” value is inactive: -7.62%.

`CCc1c(C)nc2nncn2c1NCc1ccc(OC)cc1`: the “activation” value is inactive: -3.61%.

As for `Cc1cc2c(cc3c(=O)n(CC(=O)NCc4ccccc4Br)ncn32)s1`, the “activation” value was inactive: -13.3%.

Take `Cc1ccc(Cc2c(C)nc3c(-c4ccccc4)c(C)[nH]n3c2=O)cc1`: the “activation” value was inactive: -10.1%.

For the compound `O=C(CSc1nc(=O)[nH]c2c1CCC2)NCc1ccc(Cl)cc1`, the “activation” value is inactive: -11%.

Regarding `Cc1cccc(C)c1OCCn1c(C2CC(=O)N(Cc3ccc(F)cc3)C2)nc2ccccc21` (configuration not stated), the “activation” value is inactive: -30.6%.

As for `CC(CNC(=O)c1ccc2c(c1)nc1n2CCOC1)c1ccccc1` (configuration not stated), the “activation” value was inactive: -20.5%.

For the compound `O=C(CCS(=O)(=O)c1cccc2nonc12)Nc1cccc(F)c1`, the “activation” value was inactive: -18.1%.

With `CC(C)NC(=O)CSc1nc2ccccc2c(=O)n1Cc1ccc(C(=O)NC(C)C)cc1`, the “activation” value is inactive: -17.7%.

Consider `Cc1cccc(CSc2nc3cccnc3n2Cc2ccc(C(=O)NCc3ccco3)cc2)c1`, for which the “activation” value is inactive: 2.28%.

On to `COC(=O)c1ccc(C(=O)Nc2ccc(-c3nc4cc(NC(=O)c5ccc(C(=O)OC)cc5)ccc4o3)cc2)cc1`, for which the “activation” value is inactive: -8.16%.

For `COc1ccc(CN(Cc2ccco2)c2cnc(S(C)(=O)=O)nc2C(=O)Nc2ccc(C)c(C)c2)cc1`, the “activation” value is inactive: 1.65%.

For the compound `Cc1ccc(Cl)cc1NC(=O)Cn1cc2c(n1)CCCCC2`, the “activation” value was inactive: -13.1%.

As for `CCSc1ncc(Cl)c(C(=O)Nc2ccc(S(=O)(=O)Nc3nccc(C)n3)cc2)n1`, the “activation” value was inactive: -15.2%.

For `Cc1noc2ncnc(N3CCN(c4ccccc4F)CC3)c12`, the “activation” value is inactive: -28.4%.

In the case of `COC(=O)c1ccc(NC(=O)c2cccc3c2C(=O)N(C2CCCCC2)C3)cc1`, the “activation” value was inactive: -13.4%.

On to `O=C(O)c1cccc(-c2noc(-c3ccccc3F)n2)c1`, for which the “activation” value was inactive: -10%.

With `COC(=O)CC1Oc2ccc(C)cc2-n2cc(-c3ccc(F)cc3)nc21` (configuration not stated), the “activation” value was inactive: -9.18%.

Regarding `O=C(CCC1N=C2c3ccccc3N=C(SCc3ccccc3Cl)N2C1=O)N1CCN(c2ccccc2)CC1` (configuration not stated), the “activation” value was inactive: -20.7%.

Turning to `Nc1ccc(S(=O)(=O)Nc2nccs2)cc1`, the “activation” value is inactive: -11.4%.

Turning to `CC(CNC1CCCCC1)OC(=O)c1ccccc1` (configuration not stated), the “activation” value was inactive: -14%.

As for `CC1(C)CC(=O)c2cc(-c3nc(-c4ccc(Cl)cc4)cs3)c(=O)n(-c3ccc(F)cc3)c2C1`, the “activation” value was inactive: -13.2%.

As to `COc1ccc(Cn2ccc3nc(C)c(C(=O)NCc4ccc(C)cc4)cc3c2=O)cc1`, the “activation” value is inactive: -6.56%.

As for `Cc1cccc(OCCSc2nc3ccc(NC(=O)COc4ccccc4F)cc3s2)c1`, the “activation” value was inactive: -11.6%.

Turning to `Cc1cc(Cl)ccc1NC(=O)CCn1nc(C)c2c(C)n(-c3ccccc3)nc2c1=O`, the “activation” value was inactive: -19.7%.

With `COc1ccc(-c2oc3ncn4nc(-c5ccccc5Cl)nc4c3c2-c2ccc(OC)cc2)cc1`, the “activation” value was inactive: -8.39%.

For `CCOc1ccc(CCNC(=O)CCN2N=C(c3ccc(OC)cc3)CCC2=O)cc1OCC`, the “activation” value is inactive: 2.59%.

Regarding `COc1ccc(N2CCN(C(=O)c3cc(NS(=O)(=O)c4ccc(F)cc4)ccn3)CC2)cc1`, the “activation” value is inactive: -1.63%.

For `CCCSCCCNC(=O)c1cc2n(n1)CCCN(Cc1ccc(C)cc1)C2=O`, the “activation” value was inactive: -11%.

`Cc1ccc(C)c(NC(=O)CSc2ncc3c(n2)-c2cc(Cl)ccc2N(Cc2ccccc2F)S3(=O)=O)c1`: the “activation” value is inactive: -11.5%.

For the compound `Cc1ccc(C)c(N2CCN(C(=O)CCn3c(=O)[nH]c4ccccc4c3=O)CC2)c1`, the “activation” value was inactive: -5.31%.

As for `O=S(=O)(c1ccc(F)cc1)N(Cc1nc(-c2ccccc2)no1)C1CCCCC1`, the “activation” value was inactive: -21.6%.

For the compound `CCOC(=O)c1ccc(NC(=O)COc2cccc3c(=O)n(C)ccc23)cc1`, the “activation” value is inactive: 2.51%.

Turning to `Cc1oc(-c2ccccc2Cl)nc1CS(=O)CC(=O)NCc1ccccc1Cl` (configuration not stated), the “activation” value was inactive: -17.5%.

Take `COc1ccc(NC(=O)CN2CCN(CC(=O)Nc3ccccc3F)CC2)cc1OC`: the “activation” value was inactive: -21.7%.

In the case of `Cc1ccc(-n2nc(C(=O)Nc3ccc(Br)cc3C)c(=O)n(C)c2=O)cc1`, the “activation” value was inactive: -12.5%.

As to `CCOc1ccc(NC(=O)c2sc3nc4c(cc3c2N)CN(Cc2ccccc2)CC4)cc1`, the “activation” value was inactive: -6.9%.

For `COc1ccccc1CNC(=O)CSCc1nc(-c2ccc(OC)c(OC)c2)oc1C`, the “activation” value is inactive: -13.5%.

As to `COC(=O)c1ccc(NC(=O)C(=O)NCCc2csc(-c3ccc(C(F)(F)F)cc3)n2)cc1`, the “activation” value was inactive: -13.3%.

As for `Cc1cc(Cl)ccc1OCC(=O)N1CCC(c2nc3ccccc3o2)CC1`, the “activation” value was inactive: -11.7%.

On to `Cc1ccc(CN(Cc2cccn2-c2nnc(N3CCCC3=O)s2)C(=O)Nc2ccc(F)cc2)cc1`, for which the “activation” value was inactive: -3.08%.

Take `CCOc1ccc(NC(=O)N2CCC(c3ccc(C)cc3)C2)cc1` (configuration not stated): the “activation” value was inactive: 2.61%.

In the case of `O=C(COc1ccc(F)cc1)Nc1ccc(C(=O)OCc2cc(=O)n3nc(C4CC4)sc3n2)cc1`, the “activation” value was inactive: -19.7%.

In the case of `CCOC(=O)c1ccccc1NC(=O)NCc1cccn1Cc1ccc(F)cc1`, the “activation” value was inactive: 6.91%.

Regarding `COc1ccccc1CNC(=O)C1CCN(S(=O)(=O)c2ccc3[nH]c(=O)ccc3c2)CC1`, the “activation” value was inactive: -18.8%.

Turning to `CCCn1c2ccccc2c2cnn(CC(=O)NCc3ccc(OC)cc3)c(=O)c21`, the “activation” value is inactive: 5.02%.

For `COc1ccc(OC)c(NC(=O)CCn2cccn2)c1`, the “activation” value was inactive: -2.86%.
